This is an account of results in the supplement of paper PMC4967469.

A lower IC50 marks a more sensitive line; a fit beyond the top or the lowest dose is shown as a bound at that dose. For AUC the same curve is integrated over the 256-fold range of doses and scaled to a fraction; values near 1 show little effect. Where the top dose is marked as inferred, it comes from the curve model; the source does not state it.

One may read the IC50 as the concentration needed to halve the response being measured.

Assay in all cases: Viability of human cancer cell lines after 72 h of drug (GDSC screen)
Compound in one experiment: Cc1cc([N+](=O)[O-])ccc1NS(=O)(=O)c1cc(Cl)ccc1Cl [FH535]
Particulars: top dose 32 µM; top dose inferred. The procedure:
(§1)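 Human cancer cell lines in 384-well plates, medium with 10% serum, drug for 72 h over a 256-fold dose range (nine 2-fold or five 4-fold steps up to the top dose). Adherent lines were fixed and stained with the nucleic acid dye Syto60, suspension lines read with resazurin; signal relative to control wells, capped at 0 and 100%. One two-parameter sigmoid per drug and line, fitted in a mixed model over all curves with the slope shared within a line.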

Compound in a further experiment: COc1cc(N2CCN(C)CC2)ccc1Nc1nc(N)c(C(=O)c2c(Cl)cccc2Cl)s1 [XMD14-99]
Particulars: top dose 10.24 µM; top dose inferred. The procedure:
as §1

Compound in the next experiment: O=C(NC1CCNCC1)c1n[nH]cc1NC(=O)c1c(Cl)cccc1Cl [AT-7519]
Particulars: top dose 10.24 µM; top dose inferred. The procedure:
as §1

Turning to “NCI-H1944 (lung adenocarcinoma, adherent)”, the AUC with FH535 came to 0.52; with XMD14-99, 0.985; in the experiment with AT-7519, 0.512. The results for the IC50 with FH535, with XMD14-99 and with AT-7519 were 2.28 µM, greater than 10.2 µM and 0.694 µM, respectively.
As to SU8686 (pancreas, adherent), the AUC is 0.876 in the experiment with FH535, 0.979 with XMD14-99 and 0.748 with AT-7519. Moreover, the IC50 is greater than 32 µM with FH535, greater than 10.2 µM with XMD14-99 and 3.65 µM with AT-7519.
In the case of MG-63 (osteosarcoma, adherent), the AUC in the experiment with FH535 worked out at 0.686; with XMD14-99, 0.982; with AT-7519 it was 0.98. The figures for the IC50 with FH535, with XMD14-99 and with AT-7519 were 7.28 µM, greater than 10.2 µM and greater than 10.2 µM, respectively.
For the cell line BT-483 (breast, adherent), the AUC was 0.95 in the experiment with FH535, 0.972 with XMD14-99 and 0.887 with AT-7519. Further, the IC50 with FH535 was greater than 32 µM; in the experiment with XMD14-99, greater than 10.2 µM; with AT-7519 it was greater than 10.2 µM.
On to CAL-51 (breast, adherent), for which the results for the AUC with FH535, with XMD14-99 and with AT-7519 were 0.587, 0.985 and 0.968, respectively. Besides, the IC50 in the experiment with FH535 is 3.35 µM; with XMD14-99 it was greater than 10.2 µM; with AT-7519, greater than 10.2 µM.
As for T-24 (bladder, adherent), the figures for the AUC with FH535, with XMD14-99 and with AT-7519 were 0.91, 0.984 and 0.807, respectively. Moreover, the IC50 with FH535 is greater than 32 µM; with XMD14-99, greater than 10.2 µM; with AT-7519, 4.98 µM.
For PC-3 (prostate, adherent), the AUC in the experiment with FH535 amounted to 0.658; with XMD14-99, 0.963; in the experiment with AT-7519, 0.684. For the same cell line, the IC50 is 6.08 µM with FH535, greater than 10.2 µM in the experiment with XMD14-99 and 2.37 µM with AT-7519.
Regarding SNU-423 (liver, adherent), the AUC came out at 0.709 with FH535, 0.961 with XMD14-99 and 0.463 in the experiment with AT-7519. The IC50 with FH535 was 8.71 µM; in the experiment with XMD14-99, greater than 10.2 µM; in the experiment with AT-7519 it was 0.498 µM.
For “EBC-1 (lung squamous cell carcinoma, adherent)”, the AUC with FH535 was found to be 0.633; with XMD14-99, 0.979; in the experiment with AT-7519 it was 0.774. Moreover, the IC50 is 4.91 µM with FH535, greater than 10.2 µM with XMD14-99 and 4.56 µM in the experiment with AT-7519.
Regarding ASH-3 (thyroid, adherent), the AUC came to 0.579 with FH535, 0.985 with XMD14-99 and 0.777 in the experiment with AT-7519. Also, the IC50 with FH535 is 3.29 µM; with XMD14-99, greater than 10.2 µM; in the experiment with AT-7519 it was 4.1 µM.
On to HSC-3 (head and neck, adherent), for which the AUC with FH535 was 0.579; with XMD14-99, 0.985; with AT-7519 it was 0.609. Besides, the IC50 in the experiment with FH535 was 3.19 µM; with XMD14-99, greater than 10.2 µM; with AT-7519, 1.22 µM.
As for RT4 (bladder, adherent), the values for the AUC with FH535, with XMD14-99 and with AT-7519 were 0.95, 0.987 and 0.557, respectively. In addition, the IC50 was greater than 32 µM with FH535, greater than 10.2 µM in the experiment with XMD14-99 and 0.922 µM with AT-7519.
As to HGC-27 (stomach, adherent), the AUC in the experiment with FH535 turned out to be 0.609; in the experiment with XMD14-99, 0.967; with AT-7519 it was 0.463. The 50% inhibitory concentration (IC50) is 3.8 µM in the experiment with FH535, greater than 10.2 µM with XMD14-99 and 0.515 µM with AT-7519.
As to A375 (melanoma, adherent), the AUC amounted to 0.529 with FH535, 0.991 in the experiment with XMD14-99 and 0.848 with AT-7519. Moreover, the figures for the IC50 with FH535, with XMD14-99 and in the experiment with AT-7519 were 2.36 µM, greater than 10.2 µM and 5.63 µM, respectively.
On to SW1417 (large intestine, adherent), for which the AUC turned out to be 0.76 with FH535, 0.982 with XMD14-99 and 0.954 with AT-7519. Also, the figures for the IC50 with FH535, in the experiment with XMD14-99 and with AT-7519 were 13.1 µM, greater than 10.2 µM and greater than 10.2 µM, respectively.
Turning to “NCI-H520 (lung squamous cell carcinoma, adherent)”, the AUC with FH535 was 0.673; with XMD14-99 it was 0.964; with AT-7519, 0.53. Also, the IC50 with XMD14-99 is greater than 10.2 µM; with AT-7519 it was 0.775 µM.
On to Hs940-T (melanoma, adherent), for which the AUC with FH535 is 0.554; with XMD14-99, 0.983; with AT-7519, 0.86. For the same cell line, the figures for the IC50 with FH535, in the experiment with XMD14-99 and in the experiment with AT-7519 were 2.9 µM, greater than 10.2 µM and greater than 10.2 µM, respectively.
As for “LCLC-97TM1 (large cell lung carcinoma, adherent)”, the AUC came out at 0.601 in the experiment with FH535, 0.926 with XMD14-99 and 0.329 in the experiment with AT-7519. The figures for the IC50 in the experiment with FH535, with XMD14-99 and in the experiment with AT-7519 were 3.89 µM, greater than 10.2 µM and 0.204 µM, respectively.
Turning to SAT (head and neck, adherent), the AUC with FH535 worked out at 0.9; with XMD14-99, 0.975; in the experiment with AT-7519, 0.551. In addition, the IC50 in the experiment with FH535 is greater than 32 µM; with XMD14-99, greater than 10.2 µM; in the experiment with AT-7519, 0.949 µM.
Turning to “NCI-H441 (lung adenocarcinoma, adherent)”, the results for the AUC with FH535, with XMD14-99 and with AT-7519 were 0.649, 0.981 and 0.916, respectively. Moreover, the results for the IC50 with FH535, with XMD14-99 and with AT-7519 were 6.17 µM, greater than 10.2 µM and greater than 10.2 µM, respectively.
